Test results taken from PubChem BioAssay AID720709 (National Center for Advancing Translational Sciences (NCATS), 2013).
In all, about 360,000 compounds went through this assay and about 520 (0.14%) were called active. The inconclusive results got no clear call from the source; some entries with a clear call stand among them for comparison. Calls follow the shape of the dose curve; as a rule, active = well fitted inhibition curve with a large enough effect; inconclusive = small, poorly fitted or top-dose-only effect; inactive = no such curve, though single readings can be large or run the other way. Potencies beside an inconclusive call are fits to weak or partial responses and may not hold up.

Molecular target: Rap guanine nucleotide exchange factor 3 (Homo sapiens) (UniProt O95398)
Assay: qHTS for Antagonist of cAMP-regulated guanine nucleotide exchange factor 3 (EPAC1): primary screen; also: nearly all actives have a fitted effect of over 50% in size;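 as to activity change, negative = inhibition: plate controls were vehicle for no effect and positive control for full effect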
Settings: EPAC1 GEF assay, Rap1b-BODIPY-GDP exchange fluorescence; activity change, negative = inhibition: at 115 µM (top of the series)
Potency is read from the fitted curve at half-maximal effect; tags tell the direction and shape of the fitted curve.

Sequence of UniProt O95398 (O95398 whole entry, looked up): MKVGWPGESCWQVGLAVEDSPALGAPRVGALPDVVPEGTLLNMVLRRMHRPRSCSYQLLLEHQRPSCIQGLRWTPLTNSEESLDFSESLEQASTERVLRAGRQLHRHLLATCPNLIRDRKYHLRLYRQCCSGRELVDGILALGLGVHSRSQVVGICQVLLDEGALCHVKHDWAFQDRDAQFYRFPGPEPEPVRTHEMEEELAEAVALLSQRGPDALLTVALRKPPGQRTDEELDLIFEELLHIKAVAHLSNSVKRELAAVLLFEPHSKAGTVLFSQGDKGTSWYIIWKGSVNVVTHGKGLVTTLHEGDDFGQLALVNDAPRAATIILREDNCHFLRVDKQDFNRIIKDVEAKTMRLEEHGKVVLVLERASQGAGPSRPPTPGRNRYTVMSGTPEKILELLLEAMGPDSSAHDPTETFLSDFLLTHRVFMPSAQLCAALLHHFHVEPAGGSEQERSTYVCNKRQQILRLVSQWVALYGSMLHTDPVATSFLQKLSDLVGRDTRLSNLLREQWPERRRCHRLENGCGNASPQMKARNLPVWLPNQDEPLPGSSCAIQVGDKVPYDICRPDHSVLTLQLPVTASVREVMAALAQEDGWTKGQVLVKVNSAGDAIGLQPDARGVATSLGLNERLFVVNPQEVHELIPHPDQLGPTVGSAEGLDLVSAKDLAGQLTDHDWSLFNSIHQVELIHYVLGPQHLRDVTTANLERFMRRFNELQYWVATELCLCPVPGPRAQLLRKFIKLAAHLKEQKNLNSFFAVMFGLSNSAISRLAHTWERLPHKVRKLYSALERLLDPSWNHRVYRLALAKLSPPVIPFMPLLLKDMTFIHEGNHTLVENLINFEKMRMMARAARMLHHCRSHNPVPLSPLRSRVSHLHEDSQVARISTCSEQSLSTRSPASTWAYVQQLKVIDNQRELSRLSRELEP

Potency, active:
O=C(O)c1ccccc1NS(=O)(=O)c1ccc(NN=Cc2ccc(F)cc2)c([N+](=O)[O-])c1 50.1 µM

Potency, inactive:
OC(c1ccc(Cl)c(F)c1)c1ncc(-c2cccc(C(F)(F)F)c2)[nH]1 (configuration not stated)
Cc1onc(-c2ccccc2)c1C(=O)Nc1nnc(CC(C)C)s1
O=[N+]([O-])c1ccc(O)c2ncccc12
Cc1c(CBr)[n+](=O)c2c(n1[O-])C(Br)CCC2Br (configuration not stated)
COC(=O)CN1C(=S)N(c2ccc(OC)cc2)C(=O)/C1=C/c1ccc(OC)cc1
CN(C)CCN(C(=O)/C=C/c1cccs1)c1nc2ccc(F)cc2s1
Cc1ccc(N(CC(O)CN2CCCCC2)S(=O)(=O)c2ccc(C)cc2)cc1 (configuration not stated)
CC(=O)c1sc(NC(=O)c2ccc(Cn3cc(Br)cn3)o2)nc1C
O=C(O)CC(SCC(=O)Nc1ccc(Cl)c(S(=O)(=O)N2CCOCC2)c1)C(=O)O (configuration not stated)

Potency, inconclusive:
CN(Cc1cccs1)c1nc(-c2cccnc2)nc2ccccc12 44.7 µM [inhibitor, partial curve, poor fit]
Cc1cc(C)nc(S/C=C/C(=O)c2ccccc2)n1 35.5 µM [inhibitor, full curve]
O=C(Cn1cc2c(n1)CCCCC2)N1CCCCC1 89.1 µM [inhibitor, single point]
Cc1cc(-c2nn(-c3ccccc3F)cc2CN2CCN(c3ccccn3)CC2)c(C)s1 100 µM [inhibitor, single point]
CC(C)(C)c1ccc(-c2noc(CCC(=O)NCc3ccco3)n2)cc1 112 µM [inhibitor, partial curve, poor fit]
C=CCc1cccc2cc(C(=O)NCCOC)c(=O)oc12 89.1 µM [inhibitor, single point]
CCN1CCCC1CNC(=O)C(=O)NCCc1ccc(OC)c(OC)c1 (configuration not stated) 12.6 µM [inhibitor, partial curve]
O=C(c1cc(-c2ccccc2)on1)N1CCCCCC1 17.8 µM [inhibitor, full curve, poor fit]
COc1cc(OC)c(NC(=S)Nc2cc(Cl)cc(Cl)c2)cc1Cl 89.1 µM [inhibitor, single point]
CCOc1ccc(Nc2ccc([N+](=O)[O-])c3nonc23)cc1 89.1 µM [inhibitor, partial curve]
N#C/C(=C\c1ccc2c(c1)OCO2)C(=O)NCc1ccco1 39.8 µM [inhibitor, single point]
CCOC(=O)[C@]12CCCC=C1N(Cc1ccccc1)C(=O)[C@H](CC(=O)NCCc1ccccc1OC)C2 31.6 µM [inhibitor, full curve]
Cc1ccc(S(=O)(=O)N(C)C[C@@H]2Oc3ccc(NS(C)(=O)=O)cc3CC(=O)N([C@H](C)CO)C[C@@H]2C)cc1 100 µM [inhibitor, single point]
CCCCCCSc1ccc([C@@H]2[C@H]3C(=O)N(C)C(=O)[C@H]3[C@]3(C(=O)OC)CCCCN23)cc1 100 µM [inhibitor, partial curve, poor fit]
Cc1cc(NC(=O)Nc2ccccc2[N+](=O)[O-])n(C)n1 39.8 µM [inhibitor, full curve, poor fit]
NNc1nc2c(Cl)ccc(Cl)c2s1 3.55 µM [inhibitor, full curve]
CN(CC(=O)Nc1cccc(C(F)(F)F)c1)Cc1ccccc1 100 µM [inhibitor, single point]
Cc1ccccc1OCCC(=O)OCC(=O)Nc1ccc(C(N)=O)cc1 2.82 µM [inhibitor, full curve]
O=C(CSc1nnc2ccc(-c3ccccn3)nn12)NCC1CCCO1 (configuration not stated) 3.16 µM [inhibitor, full curve, poor fit]
CC1=CCC[C@@H]2[C@@](C)(CC/C(C)=C/C(=O)O)[C@H](C)CC[C@@]12C 44.7 µM [inhibitor, partial curve]
CCOC(=O)C1=C(C)N=c2sc(=Cc3ccc(OCC(=O)O)cc3)c(=O)n2C1c1ccc(Cl)cc1 (configuration not stated) 25.1 µM [inhibitor, single point]
COc1cc(/C=N/Nc2ccc(Cl)c(C(=O)O)c2)ccc1OC(=O)c1cccs1 50.1 µM [inhibitor, partial curve]
COc1cc(C(=O)OCC2CC(c3ccccc3)=NO2)cc(OC)c1OC (configuration not stated) 20 µM [inhibitor, full curve, poor fit]
CC(=O)c1c(C)[nH]c(C(=O)OCc2cc(-c3ccco3)on2)c1C 56.2 µM [inhibitor, partial curve]
FC(F)(F)Oc1ccc(NC(=S)NCc2ccccc2)cc1 89.1 µM [inhibitor, partial curve]
COc1ccc(NC(=O)/C(Cl)=C(/Cl)S(=O)Cc2ccccc2Cl)cn1 (configuration not stated) 39.8 µM [inhibitor, full curve]
CCOc1cc(C(=O)NCC(=O)N2CCC3(CC2)NCCc2[nH]cnc23)cc(OCC)c1OCC 56.2 µM [inhibitor, single point]
COCCCNC(=O)C1CC(=O)OC1c1ccc(OC)c(OC)c1 (configuration not stated) 39.8 µM [inhibitor, single point]
CN(CCC#N)C(=O)COC(=O)c1c2c(nc3ccccc13)/C(=C\c1ccco1)CC2 28.2 µM [inhibitor, partial curve]
O=C1C=CC2=C3c4cc(O)c(O)cc4CC3(O)COC2=C1O (configuration not stated) 10 µM [inhibitor, full curve]

Activity change, negative = inhibition, inconclusive:
CSc1ccc(/C=N/n2c(Cc3ccc(Br)cc3)n[nH]c2=S)cc1 -11% [inhibitor]
O=C(COC(=O)CNS(=O)(=O)c1cc(C(F)(F)F)ccc1Cl)NC1CC1 -11.3% [inhibitor]
